From PubChem BioAssay AID1963576 (National Center for Advancing Translational Sciences (NCATS), 2024)
The whole screen tested about 46,000 compounds, of which about 60 (0.1%) were called active. Not shown: some 3% with an inconclusive outcome. The call rests on the fitted dose curve; in most records, active means well fitted inhibition curve with a large enough effect; inconclusive means small, poorly fitted or top-dose-only effect; inactive means no such curve, though single readings can be large or run the other way. Some of the results follow.

Test: Primary qHTS assay for Inhibitors of ovarian cancer metastasis using an organotypic tumor microenvironment (TME) model. Further: nearly all actives have a fitted effect of over 65% in size.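 On activity change, negative = inhibition: plate controls were DMSO wells for no effect and tomatine positive control wells for full effect.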
Settings: SKOV3ip1-GFP adhesion/invasion on 3D omental model, fluorescence; series mostly up to 45.8 µM; activity change, negative = inhibition: at the top concentration
Outline: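 qHTS, 4-pt dose (0.36-46 umol/L); SKOV3ip1-GFP, 1,200 cells/well, no FBS; primary omental fibroblast/mesothelial co-culture 48 h pre-grown; 2 h RT + 16 h 37 C; PBS wash, 4% PFA; GFP count 488/509 nm.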

Activity change, negative = inhibition, inactive:
CCc1nnc(SC(CC)C(=O)Nc2cccc(OC)c2)c2cc3oc(C)cc3n12 (stereo unspecified) -3.76%, COC(=O)c1scc(-c2ccc(C)cc2)c1S(=O)(=O)N1CCN(c2cccc(OC)c2)CC1 1.15%, CCc1ccc(CN(Cc2ccco2)c2cnc(S(C)(=O)=O)nc2C(=O)Nc2ccccc2Cl)cc1 -10%, Cc1ccc(NC(=O)Nc2ccc3snnc3c2)cc1C -6.09%, O=C(NCc1ccco1)c1ccc2c(c1)N(Cc1ccc(Cl)cc1)C(=O)c1ccccc1S2=O (stereo unspecified) 64.3%, Cc1c2cnn(CC(=O)NC(C)C)c(=O)c2c(C)n1Cc1ccccc1Cl 23.9%, CCN(C(=O)CSc1nc2ccccc2n1Cc1cc(C)ccc1C)c1ccccc1 -18.5%, CCC(Sc1nncn2c1cc1occc12)C(=O)Nc1ccc(C)c(Cl)c1 (stereo unspecified) 4.17%, Cc1ccc(C(=O)NCC(c2cccs2)S(=O)(=O)c2cccs2)cc1 (stereo unspecified) -0.94%, COc1cc(C(=O)Nc2ccc3nc(SCc4ccccc4)sc3c2)cc(OC)c1OC -19.9%, CCOC(=O)N1CCc2c(sc3c2c(=O)n(-c2ccc(CC)cc2)c(=O)n3CC(=O)c2ccc(F)cc2)C1 5.39%, Cc1c2cnn(CC(=O)Nc3cccc(C(F)(F)F)c3)c(=O)c2c(C)n1Cc1ccccc1Cl 15.6%, Cc1cccc(OCC(=O)N(Cc2sccc2C)C2CCS(=O)(=O)C2)c1 (stereo unspecified) 8.05%, CCCNC(=O)C1CCC(Cn2c(=O)c3sccc3n(CC(=O)N3CCC(C)CC3)c2=O)CC1 (stereo unspecified) 3.01%, O=C(Cn1nc(-c2ccc(Cl)cc2)ccc1=O)NCc1ccccc1Cl -16.4%, Cc1nnc(NS(=O)(=O)c2ccc(N)cc2)s1 -3.62%, CCOc1ccc(OCC)c(NC(=O)CN(C)S(=O)(=O)c2ccc3c(c2)CCCC(=O)N3)c1 -6.84%, COc1cccc(C2C(C(=O)Nc3ccc(C)cc3C)=C(C)Nc3c(C(=O)Nc4cccc(C)c4)cnn32)c1OC (stereo unspecified) -0.797%, COc1cccc(N2CCN(C3C(=O)c4ccccc4N3C(C)=O)CC2)c1 (stereo unspecified) -13.4%, COc1ccc(N2CCN(C(=O)c3nc(SC)ncc3Cl)CC2)cc1 1.25%, Cc1coc2c(C)c3oc(=O)c(CCC(=O)NCCc4ccc(Cl)cc4)c(C)c3cc12 -2.62%, CCOc1ccc(-c2nc(C#N)c(NCCCOC)o2)cc1 -8.32%, CC(NC(=O)CCCn1c(=O)c2cccn2c2cccnc21)c1ccccc1 (stereo unspecified) 16.9%, Cc1ccccc1OCCn1c(CCNC(=O)C(C)(C)C)nc2ccccc21 -2.41%, CC1=C(c2ccc(C)c(C)c2)S(=O)(=O)N=C1N1CCC(C(=O)NCc2ccc(C)o2)CC1 -9.43%, CC(C)(C)OC(=O)N1CCC(c2c(C(=O)N3CCc4ccccc4C3)cnn2-c2ccc(F)cc2)CC1 -12.1%, COCCCNC(=O)c1c(NC(=O)Cc2coc3cc(C)cc(C)c23)sc2c1CCCC2 1.38%, COc1ccc(OC)c(CNC(=O)Cc2ccc(NC(=O)N3CCCCc4ccccc43)cc2)c1 6.05%, CCN(CCCNC(=O)c1cc2c(=O)n(CC)c3ccccc3c2s1)c1ccccc1 22.1%, O=C(CSc1nccn1Cc1ccc(F)cc1)Nc1ccc2c(c1)OCCO2 1.12%, CCCNC(=O)CSc1nc2nc(C)c(Cc3ccccc3Cl)c(C)n2n1 6.98%, COc1ccc(C(=O)N(Cc2cc(OC)c(OC)c(OC)c2)CC2CCCO2)cc1 (stereo unspecified) 11.6%, O=C(NCC(c1cccnc1)N1CCc2ccccc21)c1cccc(C(F)(F)F)c1 (stereo unspecified) -11.2%, Cc1cc(F)ccc1NCc1ccccc1-c1nnc(-c2ccccc2Cl)o1 6.73%, O=C(NCc1cccc(Cl)c1)C1CCN(C(=O)c2sccc2-n2cccc2)CC1 -2.74%, CC(=O)N1CCC(N(C(=O)Nc2c(F)cccc2F)C(C)C)CC1 -4.3%, COc1cccc(C(=O)Nc2cccc(C(=O)OCc3cc(=O)n4nc(C(C)C)sc4n3)c2)c1 -5.17%, Cc1cc(C)cc(OCC(=O)Nc2ccc(S(=O)(=O)Nc3onc(C)c3C)cc2)c1 -5.73%, COc1ccc(S(=O)(=O)NCCc2csc(-c3ccc(F)cc3)n2)cc1 -1.32%, CCOC(=O)NC1(C(F)(F)F)NC(=O)N(c2ccc(C)c(C)c2)C1=O (stereo unspecified) 31.3%, O=C(CSC1=Nc2ccccc2C2=NC(Cc3ccccc3)C(=O)N12)Nc1ccccc1F (stereo unspecified) -23.3%, Cc1cc(C)cc(NC(=O)CSc2nc(-c3cccc(Cl)c3)nc3c2Cc2c(CO)cnc(C)c2O3)c1 -11.4%, CSc1nc2sc3c(c2c(=O)n1-c1ccc(F)c(Cl)c1)CCN(C(C)=O)C3 2.82%, CCc1ccc(-n2nc(C)c3c(C(=O)Nc4cc(OC)cc(OC)c4)cc(C)nc32)cc1 -9.2%, Cc1nc(CC(=O)Nc2ccc(N(C)C)cc2)cs1 4.89%, Cc1ccccc1NC(=O)CSC1=Nc2ccccc2C2=NC(CCC(=O)NCc3ccccc3)C(=O)N12 (stereo unspecified) 1.56%

outcome, inactive:
CCN(c1ccccc1)c1nnc(NC(=O)Nc2ccccc2F)s1, CCOC(=O)c1ccc(NC(=O)CC2C(=O)OCCN2CC)cc1 (stereo unspecified), COc1ccccc1/C=C/c1nc(C#N)c(N(C)C)o1, COc1ccc(N2CCN(C(=O)c3ccc(-c4nc(COc5ccccc5)c(C)o4)cc3)CC2)cc1, COc1ccc(C(C)C)cc1S(=O)(=O)NCCc1c(C)[nH]c2ccc(C)cc12, COc1ccc(-c2cc(-c3ccccc3)nc(SCC(=O)CC(=O)OC(C)C)c2C#N)cc1, O=C(c1ccc2c(c1)N(Cc1ccccc1F)C(=O)c1ccccc1S2(=O)=O)N1CCCC1, CC(NC(=O)CCSCc1ccccc1F)c1ccccc1 (stereo unspecified), CCc1ccc(CNC(=O)CSc2cc(=O)n(C)c3ccc(Cl)cc23)cc1, CCN(CC)S(=O)(=O)c1cc(-c2onc(C)c2C)ccc1OC, COc1ccc(CCCc2nnc(SCC(=O)Nc3ccc(C)cc3C)o2)cc1, Cc1ccc(-c2noc(-c3nnn(CC(=O)Nc4cc(C)cc(C)c4)c3N)n2)cc1, CCc1ccc(C(=O)c2cn(CC(=O)Nc3ccc(OC)cc3OC)c3ccc(CC)cc3c2=O)cc1, Cc1ccc(N(C)C(=O)c2cnc(N3CCOCC3)c3ccccc23)cc1C, CCOc1ccc(-c2nc(SCC(=O)NCCOC)c(-c3ccc(OC)c(OC)c3)[nH]2)cc1
